From PubChem BioAssay AID1345083 (National Center for Advancing Translational Sciences (NCATS), 2018)
The campaign covered roughly 94,000 compounds. About 6,200 (6.6%) were called active. Inconclusive results, whose numbers are uncertain, are shown with a selection of clear calls. The call rests on the fitted dose curve; in most records, active means well fitted inhibition curve with a large enough effect; inconclusive means small, poorly fitted or top-dose-only effect; inactive means flat fitted curve, though single readings scatter. A potency beside an inconclusive call is a rough fit, not a confirmed value.

assay: Cytotoxic Profiling in HEK 293 Cell Line of Diverse Libraries Using Quantitative High-Throughput Screening; details: HEK 293 viability, ATP luminescence (CellTiter-Glo), 48-72 h; activity change, negative = cytotoxicity: at 115 µM (top of the series) unless noted; series mostly up to 115 µM; further: nearly all actives have a fitted effect of over 60% in size
Outline: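 qHTS cytotoxicity; HEK 293, 250 cells/well; compound pinned; 48 or 72 hr, 37 degree Celsius, 5% CO2, 95% humidity; CellTiter-Glo, 10 min RT; luminescence (ATP).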
On the % scale 0 is the no-effect control and ±100 the full control effect; potency means the concentration at half of the fitted maximal effect; tags describe the fitted curve by direction and shape.

**Q.** For COCCOc1ccc2c(n1)CCN(C(=O)CC1CCCC1)C2, which Potency is on record?
**A.** inconclusive: 70.8 µM [inhibitor, single point]

**Q.** With O=C(NCc1ccc(C(F)(F)F)cc1)C1CCCN(c2nccc(Nc3ccccc3F)n2)C1 (stereo not drawn) as the compound, how does the Potency read?
**A.** inconclusive: 35.5 µM [inhibitor, partial curve, poor fit]

**Q.** For O=C(NCc1ccc(F)cc1)c1cc2n(n1)CC(c1ccc3c(c1)OCO3)OC2 (stereo not drawn), which Potency is on record?
**A.** inconclusive: 89.1 µM [inhibitor, single point]

**Q.** Which Potency does the source give for Cc1nc2ccccc2nc1CN1CCC2(CCC(=O)N(CCO)C2)CC1 here?
**A.** inconclusive: 25.1 µM [inhibitor, full curve, poor fit]

**Q.** For O=C(NC1CCCC1)N1CCC(c2noc(-c3cccnc3)n2)C1 (stereo not drawn), which “activity change, negative = cytotoxicity” value is on record?
**A.** inactive: -4.72%

**Q.** Which “activity change, negative = cytotoxicity” value does the source give for CN(c1ccc(C(=O)N2CCn3nc(CO)cc3C2)cc1)S(C)(=O)=O here?
**A.** inactive: -11.2%

**Q.** With CCN(CC)c1cc(CCC(=O)NCc2ccc(N3CCOCC3)cc2)ccn1 as the compound, how does the Potency read?
**A.** inconclusive: 89.1 µM [inhibitor, single point]

**Q.** For C#CCNC(=O)C1CCCN1C(=O)c1cccc(-c2cccc(OC)c2)c1 (stereo not drawn), which Potency is on record?
**A.** inconclusive: 79.4 µM [inhibitor, partial curve, poor fit]

**Q.** With CC1(NC(=O)C2CC2)CN(c2ccc(Oc3ccccc3)cc2)C1 as the compound, how does the Potency read?
**A.** inconclusive: 44.7 µM [inhibitor, partial curve, poor fit]

**Q.** Which Potency does the source give for O=C1NC2(CCN(C(=O)c3ccccc3)C2)N=C1c1ccccn1 (stereo not drawn) here?
**A.** inconclusive: 126 µM [inhibitor, single point]

**Q.** For O=C(CCc1ccc(-c2cccs2)o1)NC[C@@H]1C[C@H](F)CN1, which Potency is on record?
**A.** inconclusive: 89.1 µM [inhibitor, single point]

**Q.** For Cc1ccc(-c2nc(C(=O)NCc3ccccc3Cl)no2)cc1, which Potency is on record?
**A.** inconclusive: 89.1 µM [inhibitor, single point]

**Q.** With O=C(c1nc2cccnc2n(CCc2ccccc2)c1=O)N1CCC(c2ccccc2)CC1 as the compound, how does the Potency read?
**A.** inconclusive: 50.1 µM [inhibitor, partial curve, poor fit]

**Q.** Which “activity change, negative = cytotoxicity” value does the source give for O=C(C1CCCN1C(=O)c1ccccc1)N1CCC(c2nc3ccncc3[nH]2)CC1 (stereo not drawn) here?
**A.** inactive: 0.0498%

**Q.** For Cc1cccc(C(=O)N2CC(Oc3ccc(-c4noc(C5CCOCC5)n4)cc3)C2)c1, which Potency is on record?
**A.** inconclusive: 11.2 µM [inhibitor, full curve, poor fit]

**Q.** Which “outcome” value does the source give for CC(O)c1cc2n(n1)CCN(Cc1cc(=O)n3nc(C4CC4)sc3n1)C2 (stereo not drawn) here?
**A.** inactive

**Q.** With Fc1ccc(C2Cn3nnc(-c4nc(-c5ccc(OC(F)(F)F)cc5)no4)c3CO2)cc1 (stereo not drawn) as the compound, how does the “activity change, negative = cytotoxicity” value read?
**A.** inactive: -5.59%

**Q.** With COCc1nc(C2CC(N)C2)cc(N(C)Cc2csc(C(C)C)n2)n1 (stereo not drawn) as the compound, how does the “activity change, negative = cytotoxicity” value read?
**A.** inactive: -10.1%

**Q.** For O=C([C@@H]1C[C@H](Oc2ccccc2)CN1C(=O)c1ccn[nH]1)N1CCOCC1, which “activity change, negative = cytotoxicity” value is on record?
**A.** inactive: -1.8%

**Q.** Which Potency does the source give for COc1cccc(C(O)c2nc(C(=O)Nc3ccc(OC)c(OC)c3)c(C)o2)c1 (stereo not drawn) here?
**A.** inconclusive: 112 µM [inhibitor, single point]

**Q.** With O=C1CC(c2ccccc2)N(Cc2ccncc2)CCCN(C(=O)C2(c3ccccc3)CC2)CCN1 (stereo not drawn) as the compound, how does the Potency read?
**A.** inconclusive: 63.1 µM [inhibitor, partial curve, poor fit]

**Q.** Which Potency does the source give for O=C(c1ccc(C(F)(F)F)cc1)N1CCC2(CC1)CCN(Cc1cccs1)c1ccccc1O2 here?
**A.** active: 25.1 µM

**Q.** With C=CCNC(=O)N[C@H]1[C@H](O)[C@@H](N2CCN(C(C)=O)CC2)[C@@H]2OC[C@H]1O2 as the compound, how does the “outcome” value read?
**A.** inactive [at 172 µM]

**Q.** With CCOC(=O)c1cn(C2CN(S(=O)(=O)c3cccc(Br)c3)C2)nn1 as the compound, how does the Potency read?
**A.** inconclusive: 79.4 µM [inhibitor, partial curve, poor fit]

**Q.** Which Potency does the source give for Cc1noc(C)c1-c1ccc2c(n1)CN(Cc1ccc(C(F)(F)F)cc1)C(=O)CO2 here?
**A.** inconclusive: 100 µM [inhibitor, partial curve]

**Q.** For CN(Cc1ccccc1)C(=O)CC1CCCCN(Cc2ccccc2)C1=O (stereo not drawn), which Potency is on record?
**A.** inconclusive: 89.1 µM [inhibitor, single point]

**Q.** For CCN1c2cc(C(=O)N3CCN(c4cccc(C)c4)CC3)ccc2C(=O)N2CCCCC21 (stereo not drawn), which Potency is on record?
**A.** inconclusive: 10 µM [inhibitor, full curve, poor fit]

**Q.** With CCCCCNC(=O)Cc1csc2nc(C)c(-c3cc(C)n(-c4ccccc4CC)n3)c(=O)n12 as the compound, how does the Potency read?
**A.** inconclusive: 50.1 µM [inhibitor, partial curve, poor fit]

**Q.** Which Potency does the source give for COCCN1CC(CO)C2(CCN(C(=O)c3ccc4ncccc4c3)CC2)C1 (stereo not drawn) here?
**A.** inconclusive: 100 µM [inhibitor, single point]

**Q.** Which Potency does the source give for Cc1ccccc1CCC1CCCN(C(=O)c2cccc(O)c2C)C1 (stereo not drawn) here?
**A.** inconclusive: 44.7 µM [inhibitor, partial curve, poor fit]

**Q.** With O=C(c1ccccc1)N1CCNc2cnc(Nc3cccc(C(F)(F)F)c3)nc2C1 as the compound, how does the Potency read?
**A.** inconclusive: 39.8 µM [inhibitor, partial curve, poor fit]

**Q.** With O=C(NCc1ccc(F)cc1)C1CCc2nnc(-c3cccc(C(F)(F)F)c3)n21 (stereo not drawn) as the compound, how does the Potency read?
**A.** inconclusive: 89.1 µM [inhibitor, single point]

**Q.** Which Potency does the source give for COc1ccccc1-c1cccc(C(=O)N2CCC[C@H]2C(=O)NCc2cccc(C(F)(F)F)c2)c1 here?
**A.** inconclusive: 50.1 µM [inhibitor, partial curve, poor fit]

**Q.** With O=C(NC1CCN(c2nccc(Nc3ccccc3Cl)n2)CC1)c1ccccc1 as the compound, how does the Potency read?
**A.** active: 39.8 µM

**Q.** With O=C1Nc2ccccc2CC12CCCN2Cc1ccc(C(F)(F)F)cc1 (stereo not drawn) as the compound, how does the Potency read?
**A.** active: 44.7 µM

**Q.** With C=CCC1(CO)CCCN(Cc2cc(C3CCCCC3)no2)C1 (stereo not drawn) as the compound, how does the Potency read?
**A.** active: 39.8 µM

**Q.** For CCOCC1(C)COc2ccc(C(=O)Nc3cccnc3)cc2N1 (stereo not drawn), which Potency is on record?
**A.** inconclusive: 89.1 µM [inhibitor, partial curve, poor fit]

**Q.** Which Potency does the source give for O=C(c1nnc(CN2CCOCC2)n1Cc1ccccc1)N1CCC[C@@H]1c1ccc(Br)cc1 here?
**A.** inconclusive: 35.5 µM [inhibitor, partial curve, poor fit]

**Q.** Which Potency does the source give for Cc1nn(-c2ccc(F)cc2)c(Oc2ccc(F)cc2F)c1CCC(=O)NCc1ccco1 here?
**A.** inconclusive: 79.4 µM [inhibitor, partial curve, poor fit]

**Q.** With C[S+](=O)([O-])N1CC2(Cc3ccccc31)CN([S+](=O)([O-])c1ccc(C(F)(F)F)cc1)C2 as the compound, how does the Potency read?
**A.** inconclusive: 56.2 µM [inhibitor, partial curve, poor fit]

**Q.** Which Potency does the source give for COCCN1Cc2ccc(NCc3ccccc3)nc2C(C)(C(=O)Nc2ccccc2)C1 (stereo not drawn) here?
**A.** active: 50.1 µM

**Q.** For CN(C)c1ccc(C(=O)N2CCC(n3cc(-c4nc(-c5ccccc5)no4)nn3)CC2)cc1, which Potency is on record?
**A.** inconclusive: 3.55 µM [inhibitor, full curve, poor fit]

**Q.** For COc1ccc(Cl)cc1C(=O)N1CC(=O)N(c2ccccc2C#N)CC1C (stereo not drawn), which Potency is on record?
**A.** inconclusive: 35.5 µM [inhibitor, single point]

**Q.** For Cc1ccc(CN2CCN(c3nc4ccccc4o3)CC2CCO)cc1 (stereo not drawn), which Potency is on record?
**A.** active: 44.7 µM

**Q.** For Cc1noc(C)c1-c1cc2cc(CO)oc2c(N2CCN(c3ccccn3)CC2)n1, which Potency is on record?
**A.** active: 70.8 µM

**Q.** With Cc1c(-c2cn(C)c(=O)n3cc(COc4ccc(Cl)cc4)nc23)cnn1C as the compound, how does the Potency read?
**A.** inconclusive: 70.8 µM [inhibitor, partial curve, poor fit]

**Q.** With CC(C)N1CCC2(CC1)CN(C(=O)Cc1ccsc1)Cc1ccccc1O2 as the compound, how does the Potency read?
**A.** inconclusive: 89.1 µM [inhibitor, single point]

**Q.** For COc1ccccc1-c1cccc(C(=O)N2CCN([S+](=O)([O-])c3cccs3)CC2)c1, which Potency is on record?
**A.** active: 20 µM

**Q.** With COCC1CN(C)CC12CCN(C(=O)CCCc1ccccc1)CC2 (stereo not drawn) as the compound, how does the Potency read?
**A.** inconclusive: 50.1 µM [inhibitor, partial curve, poor fit]

**Q.** Which Potency does the source give for Cn1nccc1C(=O)N1CCC(N2C(=O)C3(CCCCC3)C2c2ccccc2)CC1 (stereo not drawn) here?
**A.** inconclusive: 50.1 µM [inhibitor, partial curve, poor fit]

**Q.** For CN(C)Cc1nnc(C2CCN(C(=O)CCNS(C)(=O)=O)CC2)n1C, which “outcome” value is on record?
**A.** inactive

**Q.** Which Potency does the source give for O=C(NCc1cccc(Cl)c1)c1ccc2nnc(CC3CC3)n2c1 here?
**A.** inconclusive: 89.1 µM [inhibitor, single point]

**Q.** With COc1ccc(C(=O)N2CCN(c3cc(-c4ccc(Cl)cc4)[nH]n3)CC2)cc1 as the compound, how does the Potency read?
**A.** active: 35.5 µM

**Q.** For Cc1noc(C)c1-c1cc2c(cc(-c3ccccc3)n2C)c(-c2ccnn2C)n1, which Potency is on record?
**A.** active: 35.5 µM

**Q.** With Cc1cccc(OCCc2noc(C3CCN(C(=O)CN4CCCC4=O)C3)n2)c1 (stereo not drawn) as the compound, how does the “activity change, negative = cytotoxicity” value read?
**A.** inactive: -4.02%

**Q.** With O=C(Cc1ccc(-c2ccccc2)cc1)N1CC(COc2ccccc2)C2(C1)CN(C(=O)c1cn[nH]c1)C2 (stereo not drawn) as the compound, how does the Potency read?
**A.** inconclusive: 50.1 µM [inhibitor, partial curve, poor fit]

**Q.** Which Potency does the source give for O=[N+]([O-])c1ccccc1CN1C[C@H](O)C[C@H]1c1nc(-c2ccc(F)cc2)no1 here?
**A.** inconclusive: 100 µM [inhibitor, partial curve, poor fit]

**Q.** With O=C1c2cnc(-c3ccccc3)nc2OCCN1Cc1ccc(F)cc1F as the compound, how does the Potency read?
**A.** active: 112 µM

**Q.** Which Potency does the source give for Cc1noc(C)c1CCC(=O)NC1CCCc2c1[nH]c1c(Cl)cccc21 (stereo not drawn) here?
**A.** inconclusive: 39.8 µM [inhibitor, partial curve, poor fit]

**Q.** With CCC1CN(Cc2nc(-c3ccc(OC)cc3F)oc2C)CCN1C(C)C (stereo not drawn) as the compound, how does the Potency read?
**A.** inconclusive: 56.2 µM [inhibitor, partial curve, poor fit]

**Q.** With CCn1nccc1C(=O)N1CC(N(Cc2cccnc2)CC(C)C)C1 as the compound, how does the Potency read?
**A.** inconclusive: 100 µM [inhibitor, single point]

**Q.** Which Potency does the source give for COc1ccccc1-c1csc(CN2CC(C)(NC(=O)C3CC3)C2)n1 here?
**A.** inconclusive: 7.08 µM [inhibitor, full curve, poor fit]

**Q.** Which Potency does the source give for CCC(CC)CN1CCC2(CC1)CC1C(=O)N(CC)C(=O)N1C2 (stereo not drawn) here?
**A.** inconclusive: 39.8 µM [inhibitor, single point]
